# PubChem BioAssay (Tox21)
# Inconclusive results, whose numbers are uncertain, are shown with a selection of clear calls. For part of these data: Potencies of inconclusive entries are left out as doubtful fits. The source made the active and inactive calls. Unless noted, calls follow the shape of the dose curve; as a rule, active = well fitted curve in the direction sought with a large enough effect in the repeat runs; inconclusive = weak or mixed curves; inactive = no such curve, though single readings can be large; an effect the other way counts as inactive or inconclusive.
# Experiments:
# [1] = qHTS assay to identify small molecule that activate the aryl hydrocarbon receptor (AhR) signaling pathway - cell viability counter screen (AID 743086); also: nearly all actives have a fitted effect of over 45% in size; also: potency is read from the fitted curve at half-maximal effect;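 as to viability change, negative = cytotoxic: HepG2 liver cells carrying the AhR DRE luciferase reporter; % is scaled to controls: 0 for no effect and ±100 for the full control effect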
# Summary of the method: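 Cytotoxicity counter screen: CellTiter-Fluor signal (30 min, 37 C) in 4000 HepG2 cells/well carrying the DRE-luciferase reporter, following 24 h compound exposure at 37 C.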
# [2] = molecular target: Peroxisome proliferator-activated receptor gamma (Homo sapiens) (UniProt P37231); assay: qHTS assay to identify small molecule agonists of the peroxisome proliferator-activated receptor gamma (PPARg) signaling pathway (AID 743094; active = well fitted activation curve with a large enough effect in the signal ratio in the repeat runs, not every such curve was filed as active; inconclusive = weak or mixed curves, or effect the other way; inactive = no such curve, though single readings can be large or run the other way; the % refers to the signal ratio; also: % is scaled to controls: 0 for no effect and ±100 for the full control effect); conditions: HEK293H PPARg-UAS-bla, beta-lactamase FRET ratio, 17 h; activation: at 57 µM (top of the series) unless noted
# Summary of the method: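 Cells from the PPARg UAS-bla HEK293H line are plated and incubated 5 h at 37C. Compounds in DMSO are pinned in and left 17 h at 37C. LiveBLAzer B/G substrate is then added for 1 h at room temperature before fluorescence is measured.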
# [3] = molecular target: Peroxisome proliferator-activated receptor gamma (Homo sapiens) (UniProt P37231); assay: qHTS assay to identify small molecule antagonists of the peroxisome proliferator-activated receptor gamma (PPARg) signaling pathway (AID 743191; calls by dose curve; also: nearly all actives have a fitted effect of over 30% in size; also: potency is read from the fitted curve at half-maximal effect; as to ratio activity, negative = inhibition: % is scaled to controls: 0 for no effect and ±100 for the full control effect); conditions: HEK293H PPARg-UAS-bla, beta-lactamase ratio, antagonist, 17 h
# Summary of the method: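 Beta-lactamase reporter under UAS control in HEK293H PPARg-bla cells; compound treatment 17 h at 37C. Read-out: fluorescence intensity after 1 h room-temperature incubation with LiveBLAzer B/G FRET substrate.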
# [4] = qHTS assay for small molecule activators of the heat shock response signaling pathway - cell viability counter screen (AID 743209); conditions: HSE-bla HeLa viability, CellTiter-Glo luminescence, 5 h; activity change, negative = cytotoxicity: at 62.6 µM (top of the series) unless noted; also: nearly all actives have a fitted effect of over 50% in size; also: potency is read from the fitted curve at half-maximal effect
# Summary of the method: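 Cytotoxicity counter screen run in parallel with the HSE beta-lactamase reporter, using the same wells. HeLa HSE-bla cells received compound for 5 h at 37 C; ATP-based CellTiter-Glo luminescence was measured after 30 min at room temperature.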
# [5] = qHTS assay for small molecule activators of the heat shock response signaling pathway (AID 743210; active = well fitted activation curve with a large enough effect in the signal ratio in the repeat runs, with a control signal flat, not every such curve was filed as active; inconclusive = weak or mixed curves; the % refers to the signal ratio; also: potency is read from the fitted curve at half-maximal effect); conditions: HeLa HSE-bla reporter, beta-lactamase ratio, 5 h; activation: at 62.6 µM (top of the series) unless noted
# Summary of the method: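 Fluorescence from a cleaved B/G FRET substrate (2.5 h, room temp) reports HSE-driven beta-lactamase in HeLa cells treated 5 h at 37 C with DMSO-dissolved compounds.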
# [6] = qHTS assay to identify small molecule agonists of the peroxisome proliferator-activated receptor delta (PPARd) signaling pathway - cell viability counter screen (AID 743211); conditions: PPARd-bla HEK293H viability, CellTiter-Glo luminescence, 17 h; activity change, negative = cytotoxicity: at 62.6 µM (top of the series); also: nearly all actives have a fitted effect of over 55% in size; also: potency is read from the fitted curve at half-maximal effect
# Summary of the method: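 Counter screen for cytotoxicity run in parallel with the PPARd reporter screen. Beta-lactamase reporter HEK293H cells exposed to compounds 17 h; ATP-based CellTiter-Glo luminescence quantified viability.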
# [7] = qHTS assay for small molecule agonists of the antioxidant response element (ARE) signaling pathway (AID 743202; active = well fitted activation curve with a large enough effect in the signal ratio in the repeat runs, not every such curve was filed as active; inconclusive = weak or mixed curves, or effect the other way; inactive = no such curve, though single readings can be large or run the other way; the % refers to the signal ratio; also: potency is read from the fitted curve at half-maximal effect; as to activation: % is scaled to controls: 0 for no effect and ±100 for the full control effect); conditions: HepG2 ARE-bla reporter, beta-lactamase FRET, 16 h; activation: at 73.3 µM (top of the series) unless noted
# Summary of the method: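 Beta-lactamase reporter activity, read as fluorescence intensity, reflects ARE/Nrf2 pathway induction in HepG2 cells after 16 h compound exposure at 37 C; substrate loading was 2 h at room temperature.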
# [8] = qHTS assay to identify small molecule antagonists of the peroxisome proliferator-activated receptor gamma (PPARg) signaling pathway - cell viability counter screen (AID 743194); conditions: PPARg-bla HEK293H viability, CellTiter-Glo luminescence, 17 h, co-treated with 50 nM rosiglitazone; activity change, negative = cytotoxicity: at 62.6 µM (top of the series) unless noted; also: nearly all actives have a fitted effect of over 55% in size; also: potency is read from the fitted curve at half-maximal effect
# Summary of the method: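 Viability was measured as CellTiter-Glo luminescence in GeneBLAzer PPARg UAS-bla HEK293H cells. These cells had been exposed 17 h at 37 C to compounds together with rosiglitazone at 50 nM final, with the beta-lactamase readout taken in the same wells.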
# [9] = qHTS assay for small molecule agonists of the antioxidant response element (ARE) signaling pathway - cell viability counter screen (AID 743203; calls by dose curve; also: potency is read from the fitted curve at half-maximal effect; nearly all actives have a fitted effect of over 55% in size); conditions: ARE-bla HepG2 viability, CellTiter-Glo luminescence, 16 h; viability change, negative = cytotoxic: at 73.3 µM (top of the series)
# Summary of the method: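 Cytotoxicity was tested in parallel with the ARE reporter screen. ARE-bla HepG2 cells were exposed to compounds for 16 hrs, and viability was taken from CellTiter-Glo luminescence.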
# [10] = ratio activity, negative = inhibition: at 62.6 µM (top of the series) unless noted
# Tags tell the direction and shape of the fitted curve or compound fluorescence and quenching.
# Chain of UniProt P37231 (P37231 whole entry, looked up): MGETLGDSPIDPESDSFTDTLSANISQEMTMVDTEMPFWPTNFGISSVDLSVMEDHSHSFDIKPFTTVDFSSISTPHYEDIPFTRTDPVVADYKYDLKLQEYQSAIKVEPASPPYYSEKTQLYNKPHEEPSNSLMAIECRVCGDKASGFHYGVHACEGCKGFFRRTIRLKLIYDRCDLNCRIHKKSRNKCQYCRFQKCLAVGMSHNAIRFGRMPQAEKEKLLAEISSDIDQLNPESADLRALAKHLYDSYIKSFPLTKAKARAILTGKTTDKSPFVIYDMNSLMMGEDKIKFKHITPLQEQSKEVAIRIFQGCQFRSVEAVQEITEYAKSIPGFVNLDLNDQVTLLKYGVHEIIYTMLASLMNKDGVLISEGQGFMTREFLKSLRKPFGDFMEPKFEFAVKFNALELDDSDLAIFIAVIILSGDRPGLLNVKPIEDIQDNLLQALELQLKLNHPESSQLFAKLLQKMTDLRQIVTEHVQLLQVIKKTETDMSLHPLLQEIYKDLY
structure (smiles),measurement,setting,value
c1csc(SSc2cccs2)c1,Potency,[1],"inconclusive [falling, partial curve, poor fit]"
same,activation,[2],inconclusive: 6.91%
same,Potency,[3]; [10],inactive
same,Potency,[4],"inconclusive [cytotoxic, full curve]"
same,Potency,[5],inconclusive
same,Potency,[6],"inconclusive [cytotoxic, single point]"
CC(C)C(=O)Nc1ccc([N+](=O)[O-])c(C(F)(F)F)c1,Potency,[1],inconclusive
same,"ratio activity, negative = inhibition",[3]; at 62.6 µM (top of the series),inactive: 11.9%
same,"ratio activity, negative = inhibition",[3]; at 81.1 µM (top of the series),inactive: 7.91%
same,"ratio activity, negative = inhibition",[3]; [10],inconclusive: -15.8%
same,Potency,[6],"inconclusive [cytotoxic, partial curve, poor fit]"
CCOc1ccccc1O[C@H](c1ccccc1)[C@H]1CNCCO1,Potency,[1],"inconclusive [falling, single point]"
same,"ratio activity, negative = inhibition",[3]; [10],inconclusive: -2.4%
same,activation,[7],inconclusive: -8.94%
c1cc(N(CC2CO2)CC2CO2)ccc1Cc1ccc(N(CC2CO2)CC2CO2)cc1 (stereo unspecified),Potency,[1],active: 54.5 µM
same,Potency,[3]; [10],inconclusive [full curve]
same,Potency,[8],"inconclusive [cytotoxic, partial curve, poor fit]"
same,Potency,[7],"inconclusive [falling, partial curve, poor fit]"
same,Potency,[9],"inconclusive [cytotoxic, single point]"
same,Potency,[5],inconclusive
O=[N+]([O-])c1ccc2ncccc2c1,Potency,[1],inactive
same,"ratio activity, negative = inhibition",[3]; [10],inconclusive: 5.29%
same,Potency,[7],inactive
same,Potency,[4],inactive
CC(=O)Oc1ccc([N+](=O)[O-])cc1CCl,Potency,[1],"inconclusive [falling, partial curve]"
same,"ratio activity, negative = inhibition",[3]; [10],inconclusive: 9.73%
same,activation,[7],inconclusive: -14.6%
same,Potency,[9],"inconclusive [cytotoxic, full curve, poor fit]"
O=C(O)CCCC[C@@H]1SC[C@@H]2NC(=O)N[C@@H]21,Potency,[1],"inconclusive [rising, partial curve, poor fit]"
same,activation,[2],inconclusive: 6.76%
same,Potency,[5],inactive
COc1ccc(S(=O)(=O)N2C(=O)[C@@](c3ccccc3OC)(N3C[C@H](O)C[C@H]3C(=O)N(C)C)c3cc(Cl)ccc32)c(OC)c1,Potency,[1],active: 30.6 µM
same,Potency,[3]; [10],"inconclusive [rising, single point]"
same,Potency,[8],inconclusive [cytotoxic]
same,Potency,[7],"inconclusive [rising, single point]"
same,Potency,[6],"inconclusive [cytotoxic, single point]"
CCCCCC[C@@H](O)C/C=C\CCCCCCCC(=O)OC,Potency,[1],inactive
same,Potency,[3]; [10],"inconclusive [activator, partial curve, poor fit]"
C=C1C2CCC(C2)C1(C)C (stereo unspecified),Potency,[1],inactive
same,"ratio activity, negative = inhibition",[3]; at 81.1 µM (top of the series),inactive: 7.45%
same,"ratio activity, negative = inhibition",[3]; [10],inconclusive: 7.14%
Nc1ccc(N=Nc2ccc(N)cc2)cc1,Potency,[1],"inconclusive [falling, single point]"
same,"ratio activity, negative = inhibition",[3]; [10],inconclusive: -26.6%
same,"activity change, negative = cytotoxicity",[8],inconclusive: -0.537%
same,Potency,[7],active: 2.43 µM
same,Potency,[6],inactive
Cc1cnc(C)c(C)n1,Potency,[1],inactive
same,Potency,[3]; [10],inactive
O=C1c2ccccc2C(=O)c2c(O)c(O)cc(O)c21,Potency,[1],"inconclusive [falling, single point]"
same,Potency,[3]; [10],"inconclusive [activator, full curve]"
same,Potency,[7],inconclusive
Cc1cc([N+](=O)[O-])ccc1N,Potency,[1],"inconclusive [falling, partial curve]"
same,Potency,[3]; [10],"inconclusive [inhibitor, partial curve]"
CCN(CCC#N)c1ccc(N=Nc2c(Cl)cc([N+](=O)[O-])cc2Cl)cc1,Potency,[1],active: 27.3 µM
same,"ratio activity, negative = inhibition",[3]; [10],inconclusive: -1.98%
same,Potency,[7],"inconclusive [falling, partial curve, poor fit]"
same,Potency,[5],inconclusive
same,Potency,[6],"inconclusive [cytotoxic, partial curve]"
O=S(=O)(O)c1ccc(N=Nc2c(O)ccc3ccccc23)cc1,Potency,[1],active: 24.3 µM
same,Potency,[3]; [10],inactive
same,Potency,[7],inconclusive
same,Potency,[4],"inconclusive [cytotoxic, partial curve, poor fit]"
Nc1c(S(=O)(=O)O)cc(Br)c2c1C(=O)c1ccccc1C2=O,Potency,[1],"inconclusive [falling, partial curve]"
same,Potency,[2],inactive
same,Potency,[7],active: 27.9 µM
same,activation,[7],inconclusive: 36.2%
